B1: A9E, B3E, B26E, desB30 human insulin (ligand)
chain 1: not shown
chain 2: FVEQHLCGSHLVEALYLVCGERGFFETPK
notes: Two-chain insulin analogue made in yeast (General Procedure B)
B2: A9D, B3E, B26E, desB30 (ligand)
chain 1: not shown
chain 2: FVEQHLCGSHLVEALYLVCGERGFFETPK
notes: as for B1
B3: A9E, B3E, B27E, B28E, desB30 human insulin (ligand)
chain 1: not shown
chain 2: FVEQHLCGSHLVEALYLVCGERGFFYEEK
notes: as for B1

The experiment deals with T1, solubilised human IR-A (IR-A holoreceptor semipurified by wheat germ agglutinin chromatography from BHK cells) (human).
T1 construct: mature; Detergent-solubilised holoreceptor, captured through anti-IR mouse antibody 83-7 on SPA beads; The A isoform lacks exon 11; also called hIRA; human insulin receptor (IR)
The experiment in a line: competition SPA, displacement of [125I-A14Y]-human insulin from solubilised human IR-A; affinity relative to human insulin standard. How it is done: Plates are incubated with gentle shaking for 22-24 h at 22° C., centrifuged at 2000 rpm for 2 minutes and counted on a TopCount NXT (Perkin-Elmer Life Sciences).
Data from the SPA are analysed according to the four-parameter logistic model (Volund A (1978) Biometrics 34 357-365), and the binding affinities of the analogues calculated relative to that of the human insulin standard measured within the same plate.
For the molecule B1, the “hIRA (% rel to HI), relative binding affinity” value was 83.2 % rel to HI. Consider B2, for which the “hIRA (% rel to HI), relative binding affinity” value is 75.5 % rel to HI. For B3, the “hIRA (% rel to HI), relative binding affinity” value is 59.5 % rel to HI.

(Values after patent US20230192801A1 (Novo Nordisk, published 2023).)
